In PubChem BioAssay AID1460 (National Center for Advancing Translational Sciences (NCATS), 2008):
Screen size: about 270,000 compounds; about 5,800 (2.1%) were called active. Inconclusive means that the source gave no clear call. Such entries were picked first, then a sample of the others. Calls follow the shape of the dose curve; as a rule, active = well fitted inhibition curve with a large enough effect; inconclusive = small, poorly fitted or top-dose-only effect; inactive = flat fitted curve, though single readings scatter. Potencies beside an inconclusive call are fits to weak or partial responses and may not hold up.

target: Microtubule-associated protein tau (Homo sapiens) (UniProt P10636); test: qHTS for Inhibitors of Tau Fibril Formation, Thioflavin T Binding; settings: recombinant tau K18 P301L (four-repeat tau fragment), heparin-induced fibrillization, ThT fluorescence; series mostly up to 57.4 µM; activity, negative = inhibition: at the top concentration; also: nearly all actives have a fitted effect of over 55% in size
Chain of UniProt P10636 (P10636 whole entry, looked up, the tested form may be a part): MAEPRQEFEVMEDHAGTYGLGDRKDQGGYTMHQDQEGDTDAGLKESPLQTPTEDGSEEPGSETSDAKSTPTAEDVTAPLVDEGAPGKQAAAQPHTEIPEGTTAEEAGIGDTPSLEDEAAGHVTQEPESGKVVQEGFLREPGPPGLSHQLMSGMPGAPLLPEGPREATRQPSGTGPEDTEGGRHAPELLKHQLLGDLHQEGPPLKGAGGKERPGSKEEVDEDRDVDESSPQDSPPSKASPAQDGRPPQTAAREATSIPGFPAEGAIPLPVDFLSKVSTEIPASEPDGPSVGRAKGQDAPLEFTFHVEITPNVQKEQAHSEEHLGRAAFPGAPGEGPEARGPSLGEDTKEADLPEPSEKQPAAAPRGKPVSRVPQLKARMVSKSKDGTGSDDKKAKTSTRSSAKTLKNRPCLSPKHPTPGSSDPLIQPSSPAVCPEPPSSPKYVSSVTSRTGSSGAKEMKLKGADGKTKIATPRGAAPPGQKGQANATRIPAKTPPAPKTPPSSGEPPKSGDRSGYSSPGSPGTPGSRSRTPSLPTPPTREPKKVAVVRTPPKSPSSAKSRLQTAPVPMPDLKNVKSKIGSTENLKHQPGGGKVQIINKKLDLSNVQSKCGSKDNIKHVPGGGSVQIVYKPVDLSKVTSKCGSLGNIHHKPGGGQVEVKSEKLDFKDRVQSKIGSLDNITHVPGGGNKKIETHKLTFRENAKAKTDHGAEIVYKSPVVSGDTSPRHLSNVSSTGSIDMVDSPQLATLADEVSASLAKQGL
Procedure, shortened: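 Heparin-induced fibrillization of the P301L-mutant K18 repeat-domain fragment of human tau was followed by ThT binding in quantitative high-throughput format.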
% is scaled to controls: 0 for no effect and ±100 for the full control effect; potency is read from the fitted curve at half-maximal effect; tags tell the direction and shape of the fitted curve.

Compound | Potency | activity, negative = inhibition
CCOC(=O)Cc1csc(NC(=O)c2sc3nc4ccc(CC)cc4cc3c2N)n1 | active: 8.91 µM | 
O=[N+]([O-])c1ccccc1N/N=C/c1c[nH]c2ccccc12 | active: 3.16 µM | 
O=[N+]([O-])c1ccc(Cl)c(-c2ccc(/C=N/c3c(-c4ccco4)nc4ccccn34)o2)c1 | inconclusive: 2.51 µM [inhibitor, full curve] | 
CCc1ccc(NC(=O)c2sc3nc(C)c(C(=O)Nc4ccc(C)cc4C)c(-c4ccco4)c3c2N)cc1 | inconclusive: 2.82 µM [inhibitor, full curve] | 
COc1ccc(Nc2sc(C(=O)c3ccccc3)c(N)c2C(=O)Nc2cc(C)ccc2C)c(OC)c1 | inconclusive: 17.8 µM [inhibitor, partial curve] | 
COC(=O)c1cccc(NC(=S)NCCC2=CCCCC2)c1 |  | inactive: -7.7%
Cc1ccn2c(c1)nc(=O)c1cc(S(=O)(=O)N3CCCCC3)c(Cl)cc12 |  | inactive: -1.55%
O=C(Nc1ccccc1)Nc1csc2ccccc12 | inconclusive: 11.2 µM [inhibitor, partial curve] | 
O=C(CSc1ccc(Cl)cc1)N1CCN(c2ccc([N+](=O)[O-])cc2Cl)CC1 | inconclusive: 15.8 µM [inhibitor, partial curve] | 
Clc1ccccc1-c1ccc(CN2CCN(c3ccccc3)CC2)o1 | inconclusive: 31.6 µM [inhibitor, single point] | 
CC(C)CC(=O)Nc1ccc(C(=O)COc2ccc(-c3nnco3)cc2)cc1 | inconclusive: 0.562 µM [inhibitor, full curve] | 
Cc1ccc(N2C(=O)C3N=NN(CC(=O)N4N=C(c5ccccc5)CC4c4ccccc4)C3C2=O)cc1 (centres undefined) | inconclusive: 20 µM [inhibitor, partial curve] | 
CCOC(=O)c1cc(CC)sc1NC(=O)C(c1ccccc1)c1ccccc1 | inconclusive: 11.2 µM [inhibitor, partial curve] | 
COc1ccc(CCNC(=O)CSC2=Nc3ccccc3C3=NC(CCC(=O)NCc4ccccc4)C(=O)N23)cc1OC (centres undefined) |  | inactive: -10.6%
Cc1cc(C)nc(NC(=NCCc2c[nH]c3ccccc23)NC(=O)Nc2cccc([N+](=O)[O-])c2)n1 | inconclusive: 8.91 µM [inhibitor, partial curve] | 
O=C(N/N=C/c1cc(Cl)cc([N+](=O)[O-])c1O)c1cc(-c2ccccn2)nc2ccccc12 | active: 8.91 µM | 
COc1ccc(CCNC(=S)NCCc2c[nH]c3ccccc23)cc1 | inconclusive: 22.4 µM [inhibitor, partial curve] | 
CCSC1=NSC2=NC(=O)/C(=C\c3coc4ccccc4c3=O)C(=N)N12 | active: 25.1 µM | 
COc1cccc(C(=O)Oc2ccccc2/C=C\C(=O)c2cc3ccccc3o2)c1 |  | inactive: 0.52%
Cc1cccc(NC(=O)CN2C(=O)c3ccccc3Sc3ncccc32)c1C | inconclusive: 39.8 µM [inhibitor, single point] | 
O=C(COC(=O)Cc1cn2ccsc2n1)NC12CC3CC(CC(C3)C1)C2 |  | inactive: 2.19%
CCCCCn1c(CCCNC(=O)c2cccc(C)c2)nc2ccccc21 | inconclusive: 20 µM [inhibitor, single point] | 

Compound | Potency | activity, negative = inhibition
COc1ccc(C2=NO[C@@H]3[C@@H]4C[C@@H]([C@H]5C(=O)N(c6ccc7c(c6)OCO7)C(=O)[C@@H]45)[C@H]23)cc1OC |  | inactive: -15.1%
COc1ccc(/C=c2\sc3nc(-c4ccccc4)c(-c4ccccc4)n3c2=O)cc1OC | inconclusive: 17.8 µM [inhibitor, partial curve] | 
Cc1[nH]c2ccc(-c3nnc(SCC(=O)c4ccc(F)cc4)o3)cc2c1C | inconclusive: 5.01 µM [inhibitor, partial curve] | 
O=C(COc1ccc(Br)cc1)N1CCC(c2ccccc2)C1 (centres undefined) | inconclusive: 0.126 µM [inhibitor, full curve] | 
COCCn1nnnc1C(c1cc2cccc(C)c2[nH]c1=O)N1CCN(c2ccccc2F)CC1 (centres undefined) | inconclusive: 25.1 µM [inhibitor, partial curve, poor fit] | 
CCC(Oc1ccccc1)C(=O)NC1CCSC1=O (centres undefined) |  | inactive: -7.45%
COc1ccc(NC(=O)c2ccc(NC(=O)CCS(=O)(=O)c3cccs3)cc2)cc1OC | inconclusive: 11.2 µM [inhibitor, partial curve] | 
C=CCNC(=S)Nc1cccc2ccccc12 |  | inactive: -3.64%
Cc1ccc(N=C2NC(=O)/C(=C/c3cccnc3)S2)cc1C | inconclusive: 8.91 µM [inhibitor, full curve] | 
O=C(O)c1c[nH]c2ccc(S(=O)(=O)N3CCN(c4ccc(F)cc4)CC3)cc2c1=O | inconclusive: 39.8 µM [inhibitor, single point] | 
COc1ccc(Cc2c(O)nc(SCC(=O)N3CCCCCC3)[nH]c2=O)cc1 | inconclusive: 25.1 µM [inhibitor, partial curve] | 
COc1ccc(Nc2nc3ccc(Cl)cc3n3nnnc23)cc1OC | inconclusive: 8.91 µM [inhibitor, full curve] | 
CC(=O)Nc1sc(C)c(C)c1C(=O)Nc1ccc(C)cc1 | inconclusive: 35.5 µM [inhibitor, single point] | 
CCCCc1nc2n[nH]c(N)c2c2c1CSC(C)(C)C2 |  | inactive: -5.58%
COc1cc(C2Nc3c(F)cccc3C3C=CCC32)cc(Br)c1OC (centres undefined) | inconclusive: 22.4 µM [inhibitor, partial curve] | 
CC1=NN(c2nc(-c3ccc(C#N)cc3)cs2)C(=O)C1 | inconclusive: 15.8 µM [inhibitor, partial curve] | 
CC(c1ccc(F)cc1)n1cc(C(=O)NCCN(C)C)nn1 (centres undefined) |  | inactive: -5.16%
Cc1oc(-c2ccc(C(=O)Nc3cccc(C(F)(F)F)c3)cc2)nc1CSc1ccccc1 |  | inactive: 5.51%
CCOC(=O)c1c(-n2cnnn2)sc2c1CCCC2 |  | inactive: -16.3%
CN(C)/C=N/c1nc2ccc3c(c2s1)CCCC3 | inconclusive: 3.98 µM [inhibitor, partial curve] | 
CCOC(=O)c1c(-c2ccc(OC)c(OC)c2)csc1NC(=O)C1CCCO1 (centres undefined) | inconclusive: 28.2 µM [inhibitor, single point] | 
COc1cccc(/C=N/NC(=O)CCn2c3ccccc3c3ccccc32)c1 |  | inactive: 3.22%
